Measurements from the RNAGym collection of RNA variant scans (doi:10.1093/nar/gkz1192).
Read counts are not given, so values of variants with three or more changes are uncertain.

B1: CPEB3 Ribozyme (parent)
chain: UAACAGGGGGCCACAGCAGAAGCGUUCACGUCGCAGCCCCUGUCAGAUUCUGGUGAAUCUGCGAAUUCUGCUGUAUAUCUC

Variants of: B1
Assay: self-cleavage, relative activity (ratio to wild type); higher = more cleavage; in vitro, sequencing
Method in brief: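 Barcoded CPEB3 ribozyme mutants, produced by rounds of error-prone PCR, self-cleaved while being transcribed with T7 RNA polymerase for 5 hours at 37°C and during a subsequent 15 min DNase I step before EDTA was added. Sequencing of template-switched cDNA on Illumina gave cleaved and total reads, and DNA sequencing assigned barcodes to variants. Each variant's relative activity is its cleaved/total read fraction divided by the unmutated ribozyme's fraction, averaged across three batches. A variant needed a minimum of 5 reads.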
With A15C A21C U41C the self-cleavage was 0.2.
A15C A21G A64U gave a self-cleavage of 0.1.
A15C A21G G33A A35G A64U U76C A77U showed a self-cleavage of 0.06.
In the case of A15C A21G U26C G33A U76C, the self-cleavage is reported as 0.28.
Work on A15C A21U U66A yielded a self-cleavage of 1.11.
In the case of A15C A28G A35G A64G, the self-cleavage is reported as 0.27.
A15C A28G A45U U51A A57G U60A G61U showed a self-cleavage of 0.08.
With A15C A28G A65G U67C A77U the self-cleavage was 0.17.
A15C A28U A45G U58A U72C U78C showed a self-cleavage of 0.16.
A15C A28U G30U G70C U74A gave a self-cleavage of 0.08.
Work on A15C A28U U31C U41A A64U C68U yielded a self-cleavage of 0.18.
In the case of A15C A28U U41A U43C U49C U58C, the self-cleavage is reported as 0.18.
A15C A28U U54C gave a self-cleavage of 0.22.
With A15C A35C U72C the self-cleavage was 1.12.
A15C A35G C40U U43C G46C showed a self-cleavage of 0.26.
For A15C A35G G63U U69C U74A, the self-cleavage was 0.22.
Work on A15C A35G U43C U60A C81A yielded a self-cleavage of 0.74.
Variant A15C A35G U51C has a self-cleavage of 1.02.
A15C A35G U66C showed a self-cleavage of 0.96.
In the case of A15C A35G U72G U80A, the self-cleavage is reported as 1.35.
Variant A15C A35U U49C has a self-cleavage of 0.15.
Work on A15C A35U U54C U72C A77G yielded a self-cleavage of 0.71.
For A15C A45G U49C U60A, the self-cleavage was 0.09.
For A15C A45G U54C, the self-cleavage was 0.4.
A15C A45G U76A showed a self-cleavage of 0.8.
A15C A45U A56G showed a self-cleavage of 0.4.
Variant A15C A45U A57U U66C has a self-cleavage of 0.2.
With A15C A45U U67C U72G the self-cleavage was 0.13.
A15C A47U U51A gave a self-cleavage of 0.36.
For A15C A64G U78C, the self-cleavage was 0.56.
A15C A64U U67C showed a self-cleavage of 0.21.
In the case of A15C A65G U69A, the self-cleavage is reported as 0.15.
Variant A15C A75G U80A has a self-cleavage of 0.59.
A15C C23U A45G showed a self-cleavage of 0.46.
With A15C C23U G33A A45G the self-cleavage was 0.09.
A15C C23U U25A U26C U31A A57G showed a self-cleavage of 0.21.
For A15C C23U U26C C39G A47U U69G, the self-cleavage was 0.04.
With A15C C23U U26C U31A the self-cleavage was 0.23.
A15C C23U U58A A77U showed a self-cleavage of 0.1.
With A15C C27A U74G U78A the self-cleavage was 0.16.
For A15C C27U A57G, the self-cleavage was 0.07.
A15C C38A A64G showed a self-cleavage of 0.08.
With A15C C38U U58C U76C the self-cleavage was 0.14.
With A15C C59A U60C the self-cleavage was 0.14.
Work on A15C G16A C38U A47U U51G A56G yielded a self-cleavage of 0.17.
A15C G22A A47G gave a self-cleavage of 0.07.
With A15C G24A U80G the self-cleavage was 0.27.
In the case of A15C G30A U43C U54C, the self-cleavage is reported as 0.14.
With A15C G30A U48G the self-cleavage was 0.16.
In the case of A15C G33C U41A U43A U72G, the self-cleavage is reported as 0.08.
In the case of A15C U25C A57G U67A, the self-cleavage is reported as 0.19.
For A15C U25C A77G, the self-cleavage was 0.33.
Work on A15C U25C C40U U69C yielded a self-cleavage of 0.12.
A15C U25C G33A U72C U76C U80A gave a self-cleavage of 0.21.
With A15C U25C G61A U74C A75U the self-cleavage was 0.27.
Variant A15C U25C U26A has a self-cleavage of 0.33.
Work on A15C U25C U43C A45U U54C yielded a self-cleavage of 0.05.
In the case of A15C U26A U43A G63A, the self-cleavage is reported as 0.05.
With A15C U26A U69C U74C the self-cleavage was 0.15.
For A15C U26C U41A U54C A56G U74G, the self-cleavage was 0.24.
A15C U26C U43C G53C U58C A64C gave a self-cleavage of 0.2.
In the case of A15C U31A C59U U74C, the self-cleavage is reported as 0.73.
In the case of A15C U31C A47G U78C, the self-cleavage is reported as 0.31.
A15C U31C U43A showed a self-cleavage of 0.56.
A15C U31C U69C gave a self-cleavage of 0.99.
Variant A15C U31C U80A has a self-cleavage of 0.59.
In the case of A15C U31G A47G, the self-cleavage is reported as 0.26.
With A15C U41C U66C the self-cleavage was 0.27.
A15C U43C A64G gave a self-cleavage of 0.16.
With A15C U43C U51A the self-cleavage was 0.61.
In the case of A15C U43G U66C U80C, the self-cleavage is reported as 0.18.
In the case of A15C U48C A64U, the self-cleavage is reported as 0.25.
A15C U49A U51C U67C U72C gave a self-cleavage of 0.15.
With A15C U51C U74C the self-cleavage was 1.1.
A15C U54C A64U C71U gave a self-cleavage of 0.41.
Variant A15C U54G A75U has a self-cleavage of 0.8.
Variant A15C U66C U72C has a self-cleavage of 0.42.
With A15G A18C G22C A45C A47U the self-cleavage was 0.2.
Work on A15G A18C U26C A45C yielded a self-cleavage of 0.15.
For A15G A18C U43C A45U A47U, the self-cleavage was 0.21.
Variant A15G A18C U43C U48C has a self-cleavage of 0.04.
In the case of A15G A18C U49A A75U, the self-cleavage is reported as 0.43.
With A15G A18C U51A the self-cleavage was 0.52.
For A15G A18C U72C, the self-cleavage was 0.87.
A15G A18G A20U U72C showed a self-cleavage of 0.07.
Variant A15G A18G A28C U43A U54C G55U U69A has a self-cleavage of 0.04.
In the case of A15G A18G A28G, the self-cleavage is reported as 0.36.
Work on A15G A18G A28G A65G yielded a self-cleavage of 0.24.
In the case of A15G A18G A28G G30C U49C, the self-cleavage is reported as 0.21.
A15G A18G A35G U48A G61A U67C showed a self-cleavage of 0.06.
A15G A18G A45G gave a self-cleavage of 0.04.
A15G A18G A45U gave a self-cleavage of 0.28.
For A15G A18G A45U U49G, the self-cleavage was 0.07.
Variant A15G A18G A56G U69C U80C has a self-cleavage of 0.47.
In the case of A15G A18G A57G A64G U67C U78A U80C, the self-cleavage is reported as 0.09.
Work on A15G A18G A57U yielded a self-cleavage of 0.12.
With A15G A18G A77U the self-cleavage was 0.36.
A15G A18G C23G U67A A75G gave a self-cleavage of 0.17.
With A15G A18G C27A A28G A45G U67C the self-cleavage was 0.11.
For A15G A18G C38A U43C A47U A65U U80C, the self-cleavage was 0.06.
With A15G A18G G24A U60C the self-cleavage was 0.2.
Work on A15G A18G U25A A57U yielded a self-cleavage of 0.06.
In the case of A15G A18G U25A C40U U51C A56G A77C, the self-cleavage is reported as 0.17.
Work on A15G A18G U25C U31A U43C A47G A64G yielded a self-cleavage of 0.36.
With A15G A18G U25C U41C the self-cleavage was 0.39.
With A15G A18G U25C U41C C71U U76C U80G the self-cleavage was 0.05.
Work on A15G A18G U26C yielded a self-cleavage of 0.32.
In the case of A15G A18G U26C A47U U72C, the self-cleavage is reported as 0.12.
Variant A15G A18G U41A U49C A57U A64G has a self-cleavage of 0.06.
A15G A18G U41A U80A gave a self-cleavage of 0.43.
With A15G A18G U43A the self-cleavage was 0.18.
Work on A15G A18G U51A U54A U66C yielded a self-cleavage of 0.16.
With A15G A18G U60C A65U U80C the self-cleavage was 0.07.
A15G A18U A35C showed a self-cleavage of 0.33.
For A15G A18U A45G U51C U60C C71G A75G, the self-cleavage was 0.22.
In the case of A15G A18U A47G U58A U66C, the self-cleavage is reported as 0.07.
For A15G A18U C32U U51G C59A, the self-cleavage was 0.
Work on A15G A18U C34A U58C yielded a self-cleavage of 0.06.
A15G A18U C39U G53U gave a self-cleavage of 0.21.
Work on A15G A18U G24A yielded a self-cleavage of 0.21.
With A15G A18U G24A C39U G46A C50A A65G the self-cleavage was 0.05.
A15G A18U G52U U58G A75U U78C gave a self-cleavage of 0.22.
Variant A15G A18U U25C U31C C38G U60C has a self-cleavage of 0.03.
A15G A18U U26A U76A gave a self-cleavage of 0.1.
In the case of A15G A18U U26C A35U, the self-cleavage is reported as 0.24.
In the case of A15G A18U U31A U54A, the self-cleavage is reported as 0.44.
Work on A15G A18U U31C A35U U51A U66C U67C yielded a self-cleavage of 0.16.
A15G A18U U31C U41A U78G showed a self-cleavage of 0.32.
In the case of A15G A18U U31C U78G, the self-cleavage is reported as 0.13.
For A15G A18U U43C U66C, the self-cleavage was 0.45.
A15G A18U U48C U51A gave a self-cleavage of 0.38.
With A15G A18U U69G the self-cleavage was 0.88.
Work on A15G A18U U80A yielded a self-cleavage of 0.39.
For A15G A20C U41C C44A, the self-cleavage was 0.55.
In the case of A15G A20C U48C U80A, the self-cleavage is reported as 0.7.
A15G A20C U58C A64U gave a self-cleavage of 0.13.
Work on A15G A20G A21G yielded a self-cleavage of 0.3.
For A15G A20G A21G A28G C44A, the self-cleavage was 0.46.
For A15G A20G A21G U51A U72C, the self-cleavage was 0.63.
A15G A20G A28G U43C U72C gave a self-cleavage of 0.14.
A15G A20G A35U showed a self-cleavage of 0.59.
A15G A20G A45G gave a self-cleavage of 0.13.
For A15G A20G A64G, the self-cleavage was 0.38.
In the case of A15G A20G A65G, the self-cleavage is reported as 0.15.
A15G A20G C32U U80C gave a self-cleavage of 0.11.
With A15G A20G C39G U51A A65G C79A the self-cleavage was 0.03.
For A15G A20G G24A A28U A57U, the self-cleavage was 0.1.
Variant A15G A20G G30A A56G U80C has a self-cleavage of 0.06.
Work on A15G A20G G30A U49C U69C yielded a self-cleavage of 0.75.
Variant A15G A20G G53A A57G has a self-cleavage of 0.42.
Work on A15G A20G G55U yielded a self-cleavage of 0.46.
A15G A20G G73A gave a self-cleavage of 1.09.
In the case of A15G A20G U25A, the self-cleavage is reported as 0.23.
Work on A15G A20G U25C A35U yielded a self-cleavage of 0.1.
Variant A15G A20G U25C U51A C62A U67C has a self-cleavage of 0.06.
With A15G A20G U31C C44U U72C the self-cleavage was 0.07.
For A15G A20G U31C U41A U78C, the self-cleavage was 0.29.
For A15G A20G U43C A75G, the self-cleavage was 0.19.
Work on A15G A20G U51C U60C A64G yielded a self-cleavage of 0.06.
With A15G A20G U54A U58C the self-cleavage was 0.3.
Work on A15G A20G U60A yielded a self-cleavage of 0.14.
A15G A20G U67A gave a self-cleavage of 0.44.
Work on A15G A20U A28U A47U A64U U78C yielded a self-cleavage of 0.09.
In the case of A15G A20U A35U U80C, the self-cleavage is reported as 0.18.
Work on A15G A20U A45G A47G A65G U67C yielded a self-cleavage of 0.08.
A15G A20U A75U showed a self-cleavage of 0.06.
Work on A15G A20U C29U U69C U80C yielded a self-cleavage of 0.12.
